PubChem BioAssay AID504832 (National Center for Advancing Translational Sciences (NCATS), 2011)
Among all 310,000 compounds or so, about 18,000 (5.8%) were called active. The inconclusive results got no clear call from the source; some entries with a clear call stand among them for comparison. Calls follow the shape of the dose curve; as a rule, active = well fitted inhibition curve with a large enough effect; inconclusive = small, poorly fitted or top-dose-only effect, or another doubt; inactive = no such curve, though single readings can be large or run the other way. No potency is given beside an inconclusive call; the fits are too rough.

test: Primary qHTS for delayed death inhibitors of the malarial parasite plastid, 48 hour incubation; conditions: P. falciparum luciferase growth in erythrocytes; series mostly up to 28.7 µM; activity change, negative = inhibition: at the top concentration
Method in brief: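 In quantitative HTS format, infected erythrocytes bearing luciferase-reporter parasites were treated for a single generation at 37 C. Luminescence after adding detection reagent served as the growth measure.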
% is scaled to controls: 0 for no effect and ±100 for the full control effect; potency is read from the fitted curve at half-maximal effect; tags tell the direction and shape of the fitted curve.

| SMILES | Potency | activity change, negative = inhibition |
| --- | --- | --- |
| Cc1ccc(OC[C@H](O)[C@H](C)NC(C)C)c2c1CCC2 | active: 9.28 µM |  |
| COc1ccc(C(=O)c2ccccc2)c2c(O)ccc(C(=O)c3ccccc3)c12 | inconclusive [inhibitor, single point] |  |
| C=CCN1c2ccccc2[C@]23C[C@@H](C(=O)OC)N(C(=O)c4cc(C)oc4C)C2=NC(C(=O)OC)=C(C(=O)OC)[C@H]13 | inconclusive [inhibitor, single point] |  |
| CCOc1ccc(/C=N/NC(=O)c2nnn(-c3nonc3N)c2CN(C)C2CCCCC2)cc1 | inconclusive [inhibitor, single point] |  |
| Cc1cc(C)nc(NC(=O)c2c(-c3c(Cl)cccc3Cl)noc2C)n1 |  | inactive: -23.3% |
| CCN(CC)c1ccc([C@H]2[C@@H]3CCCC[C@]3(O)CCN2CC(=O)NCc2ccco2)cc1 | active: 10.4 µM |  |
| O=C(OCCOc1cccc(Cl)c1)c1cc(S(=O)(=O)N2CCCCC2)ccc1N1CCOCC1 | inconclusive [inhibitor, partial curve, poor fit] |  |
| CC(=O)Nc1ccc(NC(=O)c2ccccc2CC[N+](=O)[O-])cc1 | inconclusive [inhibitor, partial curve] |  |
| COc1ccccc1-c1cc(C(=O)Nc2ccc(F)cc2F)no1 |  | inactive: 22.9% |
| O=C(Cc1cc(=O)[nH][nH]1)N/N=C/c1cccc(Cl)c1Cl | inconclusive [inhibitor, single point] |  |
| Cc1onc(-c2ccccc2)c1C(=O)N1CCCN(C(=O)c2c(-c3ccccc3)noc2C)CC1 | inconclusive [inhibitor, single point] |  |
| O=C(NCc1ccccc1Cl)C1CCN(c2cnccn2)CC1 |  | inactive: -25.7% |
| Cc1ccc2nc(-c3ccccc3)cc(C(=O)Nc3cccnc3)c2c1 | active: 2.08 µM |  |
| Nc1cc(C(=O)OCC(=O)c2ccc(CC(=O)N3CCOCC3)s2)ccc1Cl | inconclusive [inhibitor, single point] |  |
| O=C(O)CC/C(=N/NC(=O)CNC(=O)C(c1ccccc1)c1ccccc1)c1ccccc1 | inconclusive [inhibitor, single point] |  |
| COc1ccc(-n2c(N)c(-c3nc4ccccc4n3C)sc2=S)cc1 | active: 0.928 µM |  |
| COC(=O)[C@@]1(Cc2ccc(F)cc2)[C@H]2c3cc(C(=O)N(C)C)n(Cc4ccccc4)c3C[C@H]2CN1C(=O)c1ccccc1 | active: 2.94 µM |  |
| Cc1ccc(C)c(OCCC(=O)OCc2csc(CC(=O)Nc3ccccc3C)n2)c1 | active: 11.7 µM |  |
| Nc1c(N(CCCO)C(=O)C2CCCC2)c(=O)[nH]c(=O)n1Cc1ccccc1 |  | inactive: 3.41% |
| Cc1ccc(NC(=O)CN2C(=O)COc3ccc(S(=O)(=O)N4CCCC4)cc32)cc1C | inconclusive [inhibitor, partial curve, poor fit] |  |
| O=C(NCCOc1ccccc1F)Nc1ccc(Br)cc1 | inconclusive [inhibitor, full curve, poor fit] |  |
| CCc1nc2oc3ccccc3c(=O)c2c(=O)n1-c1ccccc1 |  | inactive: 205% |
| O=S(=O)(NC1CCCCC1)c1cccc(-c2nnc(-c3ccccc3)o2)c1 | inconclusive [inhibitor, single point] |  |

| SMILES | Potency | activity change, negative = inhibition |
| --- | --- | --- |
| CCN(CC)S(=O)(=O)c1cccc(-c2nnc(SCC(N)=O)n2CCc2ccccc2)c1 | inconclusive [inhibitor, single point] |  |
| COc1cc(C2C=C(c3cccs3)Nc3ncnn32)cc(OC)c1OC (stereo not drawn) | inconclusive [inhibitor, single point] |  |
| COc1ccc(C(C(=O)NCCC(C)C)N(CCO)C(=O)c2snc(C(N)=O)c2N)cc1 (stereo not drawn) |  | inactive: -18.8% |
| O=C(O)CCCCCn1c(SCc2cc(=O)n3cc(Cl)ccc3n2)nc2ccsc2c1=O | inconclusive [inhibitor, partial curve] |  |
| CCc1ccc(NC(=O)Cn2nnc(C(=O)NCc3ccc4c(c3)OCO4)c2N)cc1 |  | inactive: 26.2% |
| COC(=O)c1cc(O)cc(OC)c1C(=O)c1c(O)cc(C)cc1O | inconclusive [inhibitor, full curve, poor fit] |  |
| O=C(/C=C\c1cn(-c2ccccc2)nc1-c1ccc2c(c1)OCCO2)N1CCOCC1 | inconclusive [inhibitor, single point] |  |
| Cc1ccc(N(C)S(=O)(=O)c2cccc(C(=O)Nc3nc4ccccc4[nH]3)c2)cc1 | active: 11.7 µM |  |
| COC(=O)C1=C(c2ccc3ccccc3c2)C[C@@H]2CC[C@H]1N2C(=O)N1CCCCC1 | inconclusive [inhibitor, partial curve] |  |
| COc1ccc(-n2nnnc2SCC(=O)N2CCN(C(=O)c3ccco3)CC2)cc1OC | inconclusive [inhibitor, partial curve] |  |
| COc1ccc(-c2oc3cccnc3c2C#CC2(O)CCCCC2)cc1 | inconclusive [inhibitor, single point] |  |
| CCN(CC)C1CCN(C(=O)c2ccc(OC3CCN(CCc4ccccc4)CC3)cc2)C1 (stereo not drawn) | inconclusive [inhibitor, partial curve] |  |
| COc1ccc(CCNC(=O)CCCCCNC(=O)N2CCn3c2nc2ccccc23)cc1OC | inconclusive [inhibitor, partial curve] |  |
| Cc1ccc(S(=O)(=O)N(C)C)cc1NC(=O)C1CCCCN1S(=O)(=O)c1ccccc1 (stereo not drawn) | inconclusive [inhibitor, single point] |  |
| Cc1ccc(C)c(COc2coc(CN3CCN(C(=O)c4ccco4)CC3)cc2=O)c1 | active: 11.7 µM |  |
| COc1ccccc1N(C(=O)c1snc(C(N)=O)c1N)C(C(=O)NC1CCCC1)c1ccc2ncccc2c1 (stereo not drawn) | inconclusive [inhibitor, single point] |  |
| COc1ccc(-c2c[n+]3c(n2-c2ccc(C)cc2)CCCCC3)cc1 | active: 0.928 µM |  |
| CCNC(=O)C(Sc1ccccc1)c1ccccc1 (stereo not drawn) | inconclusive [inhibitor, partial curve, poor fit] |  |
| NC(=S)N/N=C/c1ccc(/C=N/NC(N)=S)cc1 |  | inactive: 10.4% |
| CC(=O)c1cccc(NC(=O)Cn2cnc(S(=O)(=O)N3CCc4ccccc43)c2)c1 |  | inactive: -3.51% |
| O=C(NCc1c(O)ccc2ccccc12)c1ccccc1 | inconclusive [inhibitor, partial curve, poor fit] |  |
| O=C(CN1C(=O)CCOc2ccccc21)Nc1cccc(S(=O)(=O)N2CCOCC2)c1 | inconclusive [inhibitor, single point] |  |
| Cc1cccc(C(=O)Nc2ccc(C(=O)Nc3ccc(O)cc3)cc2)c1 |  | inactive: -27.9% |

| SMILES | Potency | activity change, negative = inhibition |
| --- | --- | --- |
| CCN(CC)S(=O)(=O)c1ccc2c(c1)nc(CCC(=O)OCc1c(C)noc1C)n2C | inconclusive [inhibitor, single point] |  |
| COC(=O)c1c(NC(=O)C2C3CCC(O3)C2C(=O)O)sc2c1CCCCCC2 (stereo not drawn) | inconclusive [inhibitor, single point] |  |
| CCOC(=O)C1CCN(c2c(NCc3ccc(C(=O)NC(C)CC)cc3)c(=O)c2=O)CC1 (stereo not drawn) | inconclusive [inhibitor, single point] |  |
| O=C(NC1CC2CCCC(C1)N2C(=O)Nc1ccccc1)c1ccccc1 (stereo not drawn) | inconclusive [inhibitor, partial curve, poor fit] |  |
| NC(=NC(=O)c1ccc(Cl)cc1)N1N=CCC1c1ccccc1 (stereo not drawn) | inconclusive [inhibitor, single point] |  |
| CCc1ccc(O)c(-c2cc(C(=O)Nc3cccnc3)[nH]n2)c1 | inconclusive [inhibitor, full curve] |  |
| COC(=O)C(=O)Nc1nnc(COc2ccccc2)s1 |  | inactive: 0.454% |
| COc1cc(NC(=O)COc2ccc(Cl)cc2)ccc1-c1cc2ccccc2oc1=O | inconclusive [inhibitor, partial curve] |  |
| CCOc1ccccc1NC(=O)C(Sc1nnc2ccccn12)c1ccccc1 (stereo not drawn) | inconclusive [inhibitor, partial curve, poor fit] |  |
| CC(=O)c1ccc(N2CCN(S(=O)(=O)c3ccc4c(c3)CC(C)N4C(=O)C3CC3)CC2)cc1 (stereo not drawn) | active: 7.38 µM |  |
| O=C(NCc1ccco1)c1nc2c(nnn2Cc2ccccc2Cl)c(=O)[nH]1 | active: 9.28 µM |  |
| O=C(CN1C(=O)NC(Cc2ccccc2)(Cc2ccccc2)C1=O)NCC1CCCCC1 | inconclusive [inhibitor, full curve] |  |
| Cn1c(=O)c2c(ncn2CCOc2cccc(Br)c2)n(C)c1=O |  | inactive: 17.7% |
| O=C(OC1C2CCC1C1CN(CCc3ccccc3)CC12)c1ccccc1 (stereo not drawn) | inconclusive [inhibitor, partial curve] |  |
| CC1CCN(S(=O)(=O)c2ccc(C(=O)NCc3ccc4c(c3)OCO4)cc2)CC1 |  | inactive: 3.56% |
| CCOCN(C(=O)CCl)c1c(C)cccc1CC | active: 13.1 µM |  |
| COCCCNC(=O)C(F)(F)C(F)(F)C(=O)NCCCOC |  | inactive: 4.82% |
| CC(C(=O)Nc1ccccc1)C(=O)Nc1ccccc1 |  | inactive: -0.692% |
| CCOC(=O)c1c(NC(=O)Cn2nc(C(F)(F)F)cc2C)sc2c1CCC2 | active: 14.7 µM |  |
| CCc1ccc2nc3sc(C(=O)O)cc3cc2c1 | inconclusive [inhibitor, single point] |  |
| CC(C)(C)n1ncc2c(=O)n(CC(=O)Nc3ccc4c(c3)OCO4)cnc21 |  | inactive: 17.7% |
| O=c1[nH]c(=O)n(C2CCCCC2)c(O)c1C=Nc1ccc(N2CCOCC2)cc1 | inconclusive [inhibitor, full curve, poor fit] |  |
